Results from article PMC4336329 (PLoS ONE, 2015).
The campaign covered roughly 310,000 compounds. About 14,000 (4.5%) showed an effect of 50% or more. Effects have a minus sign here. The list shows a part of the results.

Biological target: human ether-à-go-go-related gene (hERG) potassium channel (human, UniProt Q12809)
Assay: primary screen, population patch clamp on CHO cells stably expressing hERG
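Also: peak tail current of the secondary pulse compared with the same well before compound.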

Chain of human ether-à-go-go-related gene (hERG) potassium channel (Q12809 whole entry, looked up): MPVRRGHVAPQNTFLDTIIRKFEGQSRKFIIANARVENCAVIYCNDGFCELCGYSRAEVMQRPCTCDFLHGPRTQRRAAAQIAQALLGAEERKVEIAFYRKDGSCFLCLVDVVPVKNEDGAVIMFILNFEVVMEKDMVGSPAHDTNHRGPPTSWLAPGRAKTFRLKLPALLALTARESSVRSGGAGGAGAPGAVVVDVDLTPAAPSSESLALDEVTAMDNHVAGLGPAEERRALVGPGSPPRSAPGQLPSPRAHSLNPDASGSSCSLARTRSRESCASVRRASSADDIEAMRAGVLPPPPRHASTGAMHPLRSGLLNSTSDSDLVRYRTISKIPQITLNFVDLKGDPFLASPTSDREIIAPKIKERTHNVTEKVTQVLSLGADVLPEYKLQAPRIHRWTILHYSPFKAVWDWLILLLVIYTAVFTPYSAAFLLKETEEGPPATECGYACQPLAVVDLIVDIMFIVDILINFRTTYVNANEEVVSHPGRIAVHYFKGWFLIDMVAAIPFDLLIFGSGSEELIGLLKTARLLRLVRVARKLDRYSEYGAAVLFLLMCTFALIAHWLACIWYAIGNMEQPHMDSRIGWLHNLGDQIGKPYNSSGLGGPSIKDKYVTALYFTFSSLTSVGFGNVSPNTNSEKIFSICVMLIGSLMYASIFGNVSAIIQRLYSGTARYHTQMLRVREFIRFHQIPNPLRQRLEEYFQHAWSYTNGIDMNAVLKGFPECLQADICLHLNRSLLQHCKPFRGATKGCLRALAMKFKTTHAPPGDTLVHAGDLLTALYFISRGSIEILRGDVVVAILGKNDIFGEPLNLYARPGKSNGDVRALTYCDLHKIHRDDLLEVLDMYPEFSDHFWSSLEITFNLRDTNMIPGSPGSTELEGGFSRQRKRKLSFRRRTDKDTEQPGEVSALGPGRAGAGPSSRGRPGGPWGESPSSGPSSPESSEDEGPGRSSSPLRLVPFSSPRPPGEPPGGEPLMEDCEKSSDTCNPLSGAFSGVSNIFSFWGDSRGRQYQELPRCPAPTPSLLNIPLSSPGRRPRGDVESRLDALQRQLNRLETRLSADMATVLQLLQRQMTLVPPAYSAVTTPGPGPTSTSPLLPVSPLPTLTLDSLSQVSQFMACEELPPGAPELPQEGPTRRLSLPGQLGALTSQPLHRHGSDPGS

SMILES | hERG current change (%, negative = inhibition) at 10uM [%]
CC(=O)N1CCOc2ccc(S(=O)(=O)N3CCC(C(=O)Nc4ccc(C)cc4C)CC3)cc21 | 6.73
O=C(COC(=O)C1=COCCO1)Nc1ncc(C(F)(F)F)cc1Cl | 4.52
O=C(/C=C/c1ccc(F)cc1)NC(=S)NNC(=O)c1cnccn1 | 19.8
COc1cc2c(cc1OC)-c1cc(Nc3ccc4c(c3)OCCO4)nc(=O)n1CC2 | -15.6
CCCCN=C(NNc1ccc(Br)cc1)C(=O)OCC | 3.69
CC[C@@H](C(=O)[C@@H](C)[C@@H](O)[C@H](C)CCc1ccc(C)c(O)c1C(=O)[O-])[C@H]1O[C@](CC)([C@H]2CC[C@](O)(CC)[C@H](C)O2)C[C@@H]1C.[Na+] | 0.419
C[n+]1cccc(C(=O)NNC(=O)C23CC4CC(CC(C4)C2)C3)c1.[I-] | 37.4
COc1cc(/C=C(\C#N)c2nc3ccccc3[nH]2)ccc1Oc1ccc([N+](=O)[O-])cn1 | -5.49
CCCCn1c(SCC(=O)N2CC(=O)Nc3ccccc32)nnc1-c1ccoc1C | 0.449
CCOc1ccc(S(=O)(=O)N(C)CC(=O)NCc2ccco2)cc1 | 19.9
CCC(C)(C(=O)Nc1ccccc1C)N(C(=O)CNC(C)=O)c1ccccc1C (stereo not drawn) | 13.5
C(=N\Nc1nc(N2CCCCC2)nc(N2CCCCC2)n1)/c1c[nH]c2ccccc12 | 17.8
Cc1ccc(-c2nnn(CC(=O)N(CCCO)C(C(=O)NC3CCCC3)c3ccc(F)cc3)n2)o1 (stereo not drawn) | 13.4
Cc1ccnc(N2CCC(C(=O)Nc3nnc(C)s3)CC2)n1 | 6.72
Cl.OC(COc1ccccc1Br)CN1CCNCC1 (stereo not drawn) | 2.1
Cc1cc(OCc2cc3c(cc2Cl)OCO3)c2c(C)cc(=O)oc2c1 | 10.7
Cc1ccn2cc(CCNS(=O)(=O)c3ccc4ccccc4c3)nc2c1 | -39.6
COc1ccc([C@H]2CC(=O)C=C(c3cc4ccccc4s3)C2)cc1OC | 19.1
COc1ccc(C2=CSC3=C(C(=O)c4cccc(S(=O)(=O)N(C)C)c4)CCN23)cc1 | -47.1
COC(=O)c1sccc1NC(=O)C1CC2CCC1C2 (stereo not drawn) | 16.7
O=C(Nc1ccc(F)cc1F)N1CCCCCC1 | 9.59
COc1ccc(NC(=O)C2CCC(=O)N2)cc1 (stereo not drawn) | 4.32
O=C(/C=C/c1ccc(O)cc1)c1ccc(O)cc1O | 9.4

SMILES | hERG current change (%, negative = inhibition) at 10uM [%]
Cc1sc(=NC(=O)c2ccco2)n(C)c1-c1ccccc1 | -16.3
Cc1cccc(NC(=S)NCCc2ccccc2)n1 | 7.28
Nc1ccc(S(=O)(=O)NC(Cc2ccccc2)C(=O)O)cc1 (stereo not drawn) | 19.6
COC(=O)c1cc(OC)c(OC)cc1NC(=O)c1c(-c2ccccc2Cl)noc1C | -9.48
COc1ccc(CNCCCSc2ncccn2)cc1OC.Cl | 11.9
S=C(NCCc1ccccc1)Nc1cnc2ccccc2c1 | 2.28
Clc1ccc2nc(-c3ccccc3)c(CN3CCOCC3)n2c1 | -26.1
Cc1cc(C)n(C(=O)COc2ccc([N+](=O)[O-])cc2)n1 | 20
C#CCOc1nc(OCC#C)nc(OCC#C)n1 | 17.9
COc1ccc(-c2nc3ccccc3c(=O)n2CCOc2ccccc2C)cc1 | 21
Cc1cc(C)n(-c2nc3c(c(=O)[nH]c(=O)n3C)n2Cc2cccc(Br)c2)n1 | 1.87
Nc1ccccc1C#Cc1ccc2[nH]ccc2c1 | 6.99
COc1ccc2c(c1)CCc1c(C(=O)Nc3c(C)n(C)n(-c4ccccc4)c3=O)noc1-2 | 4.63
Cc1c(C(=O)OCC(=O)Nc2ccc(C(N)=O)cc2)cccc1[N+](=O)[O-] | 10.9
CC(=O)Oc1ccc(C(C)=O)c2c1OCCO2 | 14.3
COc1cc(CN2CCC(C(=O)N3CCCC(C)C3)CC2)cc(Br)c1O.O=C(O)C(=O)O (stereo not drawn) | -24.1
CCOc1cc(/C=C2\SC(N)=NC2=O)ccc1O | 15.4
COCCNC(=O)CN(C(=O)c1ccc(N2CCCC2)nc1)c1ccccc1 | 47.3
CCCCCNC(=O)C1CC=CCC1C(=O)O (stereo not drawn) | 11.7
CCOC(=O)COc1cccc2c(=O)n(CC(=O)N3CCCc4ccccc43)ccc12 | -9.8
COc1ccc(CNC(=O)CN(Cc2ccc(OC)cc2)C(=O)CCC(=O)Nc2nccs2)cc1 | -15.5
O=C(N/N=C/c1c(O)n(C2CC2)c(=S)[nH]c1=O)c1ccccc1O | 2.57
